Source: the CheMixHub viscosity set
± gives the uncertainty stated by the source. Further values from the same series stand in other lists.

Assay: xn = mol fraction of the nth substance listed

Nc1ccccc1 + C1CCCCC1
viscosity (301.73 K, 101 kPa, x1 = 0.229): 0.985 ± 0.013 mPa·s
viscosity (302.05 K, 101 kPa, x1 = 0.229): 0.979 ± 0.013 mPa·s
viscosity (302.32 K, 101 kPa, x1 = 0.238): 1.071 ± 0.014 mPa·s
viscosity (302.61 K, 101 kPa, x1 = 0.229): 0.968 ± 0.013 mPa·s
viscosity (302.61 K, 101 kPa, x1 = 0.238): 1.065 ± 0.014 mPa·s
viscosity (302.75 K, 101.32 kPa, x1 = 0.496): 1.66 ± 0.045 mPa·s
viscosity (303.56 K, 101 kPa, x1 = 0.238): 1.034 ± 0.013 mPa·s
viscosity (303.62 K, 101 kPa, x1 = 0.229): 0.943 ± 0.012 mPa·s
viscosity (303.75 K, 101.32 kPa, x1 = 0.2643): 1.07 ± 0.04 mPa·s
viscosity (304.15 K, 101.32 kPa, x1 = 0.2643): 1.03 ± 0.039 mPa·s
viscosity (304.15 K, 101.32 kPa, x1 = 0.4039): 1.52 ± 0.044 mPa·s
viscosity (304.15 K, 101.32 kPa, x1 = 0.496): 1.47 ± 0.043 mPa·s
viscosity (304.53 K, 101 kPa, x1 = 0.229): 0.926 ± 0.012 mPa·s
viscosity (304.65 K, 101.32 kPa, x1 = 0.4313): 1.42 ± 0.043 mPa·s
viscosity (305.15 K, 101.32 kPa, x1 = 0.496): 1.4 ± 0.043 mPa·s
viscosity (305.36 K, 101 kPa, x1 = 0.238): 0.989 ± 0.013 mPa·s
viscosity (305.44 K, 101 kPa, x1 = 0.229): 0.911 ± 0.012 mPa·s
viscosity (305.55 K, 101.32 kPa, x1 = 0.5628): 1.44 ± 0.043 mPa·s
viscosity (305.65 K, 101.32 kPa, x1 = 0.4039): 1.28 ± 0.042 mPa·s
viscosity (305.65 K, 101.32 kPa, x1 = 0.4313): 1.3 ± 0.042 mPa·s
viscosity (306.15 K, 101.32 kPa, x1 = 0.2643): 0.98 ± 0.039 mPa·s
viscosity (306.26 K, 101 kPa, x1 = 0.229): 0.893 ± 0.012 mPa·s
viscosity (306.75 K, 101.32 kPa, x1 = 0.5628): 1.39 ± 0.043 mPa·s
viscosity (307.15 K, 101.32 kPa, x1 = 0.4039): 1.15 ± 0.04 mPa·s
viscosity (307.43 K, 101 kPa, x1 = 0.229): 0.874 ± 0.011 mPa·s
viscosity (307.49 K, 101 kPa, x1 = 0.238): 0.943 ± 0.012 mPa·s
viscosity (308.15 K, 101.32 kPa, x1 = 0.2643): 0.93 ± 0.038 mPa·s
viscosity (308.15 K, 101.32 kPa, x1 = 0.496): 1.27 ± 0.041 mPa·s
viscosity (308.4 K, 101 kPa, x1 = 0.229): 0.857 ± 0.011 mPa·s
viscosity (309.15 K, 101.32 kPa, x1 = 0.4039): 1.06 ± 0.04 mPa·s
viscosity (309.15 K, 101.32 kPa, x1 = 0.4313): 1.14 ± 0.04 mPa·s
viscosity (309.28 K, 101 kPa, x1 = 0.229): 0.838 ± 0.011 mPa·s
viscosity (309.65 K, 101.32 kPa, x1 = 0.5628): 1.27 ± 0.041 mPa·s
viscosity (310.15 K, 101.32 kPa, x1 = 0.2643): 0.89 ± 0.038 mPa·s
viscosity (310.15 K, 101.32 kPa, x1 = 0.4039): 1.04 ± 0.039 mPa·s
viscosity (310.15 K, 101.32 kPa, x1 = 0.4313): 1.11 ± 0.04 mPa·s
viscosity (310.15 K, 101.32 kPa, x1 = 0.496): 1.22 ± 0.041 mPa·s
viscosity (310.41 K, 101 kPa, x1 = 0.238): 0.886 ± 0.011 mPa·s
viscosity (310.69 K, 101 kPa, x1 = 0.229): 0.818 ± 0.011 mPa·s
viscosity (311.29 K, 101 kPa, x1 = 0.229): 0.807 ± 0.01 mPa·s
viscosity (311.68 K, 101 kPa, x1 = 0.238): 0.861 ± 0.011 mPa·s
viscosity (312.29 K, 101 kPa, x1 = 0.229): 0.791 ± 0.01 mPa·s

CCCCCCCCCC(=O)OC + CCCCO
viscosity (318.15 K, 100 kPa, x1 = 0.2): 1.285 ± 0.078 mPa·s
viscosity (318.15 K, 100 kPa, x1 = 0.3): 1.239 ± 0.075 mPa·s
viscosity (318.15 K, 100 kPa, x1 = 0.4): 1.22 ± 0.074 mPa·s
viscosity (318.15 K, 100 kPa, x1 = 0.5): 1.213 ± 0.073 mPa·s
viscosity (318.15 K, 100 kPa, x1 = 0.6001): 1.222 ± 0.074 mPa·s
viscosity (318.15 K, 100 kPa, x1 = 0.6999): 1.238 ± 0.075 mPa·s
viscosity (318.15 K, 100 kPa, x1 = 0.7987): 1.262 ± 0.076 mPa·s
viscosity (318.15 K, 100 kPa, x1 = 0.8967): 1.295 ± 0.078 mPa·s
viscosity (323.15 K, 100 kPa, x1 = 0.1): 1.25 ± 0.076 mPa·s
viscosity (323.15 K, 100 kPa, x1 = 0.2): 1.17 ± 0.071 mPa·s
viscosity (323.15 K, 100 kPa, x1 = 0.3): 1.132 ± 0.068 mPa·s
viscosity (323.15 K, 100 kPa, x1 = 0.4): 1.117 ± 0.067 mPa·s
viscosity (323.15 K, 100 kPa, x1 = 0.5): 1.117 ± 0.067 mPa·s
viscosity (323.15 K, 100 kPa, x1 = 0.6001): 1.126 ± 0.068 mPa·s
viscosity (323.15 K, 100 kPa, x1 = 0.6999): 1.142 ± 0.069 mPa·s
viscosity (323.15 K, 100 kPa, x1 = 0.7987): 1.166 ± 0.07 mPa·s
viscosity (323.15 K, 100 kPa, x1 = 0.8967): 1.198 ± 0.072 mPa·s

CC(C)(C)N + O
viscosity (308.15 K, 101.33 kPa, x1 = 0.9): 0.4625 ± 0.0054 mPa·s
viscosity (313.15 K, 101.33 kPa, x1 = 0.1001): 1.622 ± 0.01 mPa·s
viscosity (313.15 K, 101.33 kPa, x1 = 0.2002): 1.905 ± 0.013 mPa·s
viscosity (313.15 K, 101.33 kPa, x1 = 0.2998): 1.759 ± 0.012 mPa·s
viscosity (313.15 K, 101.33 kPa, x1 = 0.3996): 1.429 ± 0.011 mPa·s
viscosity (313.15 K, 101.33 kPa, x1 = 0.5): 1.102 ± 0.0091 mPa·s
viscosity (313.15 K, 101.33 kPa, x1 = 0.5999): 0.8436 ± 0.0076 mPa·s
viscosity (313.15 K, 101.33 kPa, x1 = 0.6984): 0.6553 ± 0.0065 mPa·s
viscosity (313.15 K, 101.33 kPa, x1 = 0.7998): 0.5186 ± 0.0056 mPa·s
viscosity (313.15 K, 101.33 kPa, x1 = 0.9): 0.4274 ± 0.0051 mPa·s
